This experiment concerns the target N555-hRFC, N-terminal truncation variant of the human replication factor C clamp loader complex (human, UniProt P35251 1-1148; P35250; P40938; P35249; P40937, Limits not printed: N555 is taken by convention as deletion of RFC1 (p140) residues 1-555, BRCT domain removed. The vector initiator Met is not included. Assayed with ATP/Mg2+.). In words: apparent Kd from RFC ATP hydrolysis.

B1: PCNA-C148S (natural protein)
chain: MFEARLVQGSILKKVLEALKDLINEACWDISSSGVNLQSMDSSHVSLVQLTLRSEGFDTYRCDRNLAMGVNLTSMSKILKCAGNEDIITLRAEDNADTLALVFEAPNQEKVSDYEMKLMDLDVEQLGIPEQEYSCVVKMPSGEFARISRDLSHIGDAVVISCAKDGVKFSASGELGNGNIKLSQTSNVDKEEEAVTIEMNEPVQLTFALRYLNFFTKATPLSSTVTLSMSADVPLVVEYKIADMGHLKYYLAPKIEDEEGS
In the case of B1, the Kd turned out to be 154 nM.

Source of the values: PMC10165274 (2023).
